# Reference: the RNAGym collection of RNA variant scans (doi:10.1093/nar/gkz1192)
# The source gives no read counts; variants with many changes may rest on few reads.
# B1: CPEB3 Ribozyme (parent)
# chain: UAACAGGGGGCCACAGCAGAAGCGUUCACGUCGCAGCCCCUGUCAGAUUCUGGUGAAUCUGCGAAUUCUGCUGUAUAUCUC
# Variants of: B1
# Assay: self-cleavage, relative activity (ratio to wild type); higher = more cleavage; in vitro, sequencing
# Summary of the method: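 Libraries of CPEB3 self-cleaving ribozyme mutants came from rounds of error-prone PCR and carried barcodes, which DNA sequencing matched to variants. In vitro transcription used T7 RNA polymerase at 37°C for 5 hours, with a further 15 min in DNase I before EDTA stopped the reaction; the ribozymes cleaved during both steps. The RNA was reverse transcribed with template switching and sequenced on Illumina. Relative activity is the cleaved/total read fraction of a variant divided by that of the unmutated ribozyme, averaged over three batches with at least 5 reads.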
row,Variant,self-cleavage
1,UAACAGGGGGCCACAGCAGAGGCGCUUACGUCGCAGCGCCUGUCAGAUUCUGGUGAAUCUGCGAAUUCUGCUGUAUAUCCC [A21G U25C C27U C38G U80C],0.05
2,UAACAGGGGGCCACAGCAGAGGCGCUCACGUCGAAGCCACCGUCAGAUUCUGGUGAAUCUGCGGAUUCUGCUGUAUAUCUC [A21G U25C C34A C39A U41C A64G],0.28
3,UAACAGGGGGCCACAGCAGAGGCGCUCACGUCGCAGACCCUGUCAGAUCCUGGUGAGUCUGCGAAUUCUGCAGUAUAUCCC [A21G U25C C37A U49C A57G U72A U80C],0.19
4,UAACAGGGGGCCACAGCAGAGGCGCUCACGUCGCAGCCUCUGUCAGAUUCUGGUGAAUCUGCGAAUUCUGCUGUAUAUCUC [A21G U25C C39U],0.17
5,UAACAGGGGGCCACAGCAGAGGCGCUCACGUCGCAGCCCUUGUCAGAUUCUGGAGAAUCAGCGAAUUCUGCUGUAUUUCUC [A21G U25C C40U U54A U60A A77U],0.14
6,UAACAGGGGGCCACAGCAGAGGCGCUCACGUCGCAGCCCCUGUCAGAUUCUGGUGAAUCUGCGAAUUUUGCUGCAUAUCUC [A21G U25C C68U U74C],0.16
7,UAACAGGGGGCCACAGCAGAGGCGCUCACAUCGCAGCCACUGUCAGAUUCUGGUGAACCUGCGAAUUCUGCUGUAUAUCUC [A21G U25C G30A C39A U58C],0.13
8,UAACAGGGGGCCACAGCAGAGGCGCCCACGUCGCAGCCCCUGUCACAUUCUGGUGAAUCUGCGUAUUCUGCUGUAUAUCUC [A21G U25C U26C G46C A64U],0.16
9,UAACAGGGGGCCACAGCAGAGGCGCCCACGUCGCAGCCCCUGACAGAUUCUGGUGAACCCGCGAAUUCUGCUGUAUAUCUC [A21G U25C U26C U43A U58C U60C],0.12
10,UAACAGGGGGCCACAGCAGAGGCGCUCACGUCGCAGCCCCAGUCAGAUUCUGGUGAAUCUGCGAAUUCUGCUGUAUAUCCC [A21G U25C U41A U80C],0.1
11,UAACAGGGGGCCACAGCAGAGGCGCUCACGUCGCAGCCCCCGUCAGAUUCUGGUGAAUCUGCGGAUUCUGCUGUAUAUCUC [A21G U25C U41C A64G],0.29
12,UAACAGGGGGCCACAGCAGAGGCGCUCACGUCGCAGCCCCUGCCAGAUUCUGGUGAAUCUGCGAAUUCCGCUGUAUAUCUU [A21G U25C U43C U69C C81U],0.02
13,UAACAGGGGGCCACAGCAGAGGCGCUCACGUCGCAGCCCCUGGCAGAUUUUGGUGAAUCUGCGUAUUCUGCUGUAUAUCUC [A21G U25C U43G C50U A64U],0.07
14,UAACAGGGGGCCACAGCAGAGGCGCUCACGUCGCAGCCCCUGUCAGAUUCAGGUGAACCUGCGAAUUCUGCUGUAUAUCUC [A21G U25C U51A U58C],0.24
15,UAACAGGGGGCCACAGCAGAGGCGCUCACGUCGCAGCCCCUGUCAGAUUCAGGUGAAUCUGCGAAUUCUGCUGUAUAUCAC [A21G U25C U51A U80A],0.15
16,UAACAGGGGGCCACAGCAGAGGCGCUCACGUCGCAGCCCCUGUCAGAUUCUGGUGAAUCAGCGAAUUCUGCUGUAUAUCUC [A21G U25C U60A],0.1
17,UAACAGGGGGCCACAGCAGAGGCGGUCACGUCGCAGCCCCUGUCAGAUUCUGGUGAAUCUGCGAGUUCUGCAGUAUUUCUC [A21G U25G A65G U72A A77U],0.05

row,Variant,self-cleavage
1,UAACAGGGGGCCACAGCAGAGGCGGUCACGUCGCAGCCCCUGUCAGAUUCUUGUGAAUCUGCGAAUUCUGCUGUAUAUCUC [A21G U25G G52U],0.39
2,UAACAGGGGGCCACAGCAGAGGCGGACACGUCGCUGCCCCUAUCAGAUUCUGGUGAAUCUGCGAAUUCUGCCGUAUAUCUC [A21G U25G U26A A35U G42A U72C],0.05
3,UAACAGGGGGCCACAGCAGAGGCGUACUCGUCGCAGCCCCUGUCGGAUUCUGGUGAAUCUGCGAAUUCUGCUGUAUAUCUC [A21G U26A A28U A45G],0.17
4,UAACAGGGGGCCACAGCAGAGGCGUACACGUCGCUGCCCCUGUCAGAUUCUGGCGAAUCUGCGAAUUCUGCUGUAUAUCUC [A21G U26A A35U U54C],0.12
5,UAACAGGGGGCCACAGCAGAGGCGUACACGUCGCAGCCCCUGUCCGAUUCUGGUGAAUCAGCGAAUUCUGCUGUAUAUCUC [A21G U26A A45C U60A],0.21
6,UAACAGGGGGCCACAGCAGAGGCGUACACGUCGCAGCCCCUGUCAGAUUCUGGUGGAUCUGCGAAUUCUGCUGUAUAUCUC [A21G U26A A56G],0.51
7,UAACAGGGGGCCACAGCAGAGGCGUACACGUCGCAGCCCCUGUCAGAUUCUGGUGAAUCUGCGGAUUCUGCCGUAUAUUUC [A21G U26A A64G U72C C79U],0.19
8,UAACAGGGGGCCACAGCAGAGGCGUACACGUCGCAGCUCCGGUCAGUUUCUGGUGAAUCUGCGAAUUCUGCUGUAUAUCUC [A21G U26A C38U U41G A47U],0.08
9,UAACAGGGGGCCACAGCAGAGGCGUACACGUCGCAGCCCCUGUCAGAUUCUGGUGAAUAUGCGAAUUCUGCUGUAUACCUC [A21G U26A C59A U78C],0.07
10,UAACAGGGGGCCACAGCAGAGGCGUACACGUCGCAGCCCCAGUCAGAUACUGGUGAAUCUGCGAAUUCUGCCGUAUAUCUC [A21G U26A U41A U49A U72C],0.04
11,UAACAGGGGGCCACAGCAGAGGCGUACACGUCGCAGCCCCUGUCAGAUACUGGUGAAUCUGCGAAUUCUGCUGUAUAUCUC [A21G U26A U49A],0.2
12,UAACAGGGGGCCACAGCAGAGGCGUACACGUCGCAGCCCCUGUCAGAUACUGGCGAAUCUGCGUAUUCUGCUGUAUAUCUC [A21G U26A U49A U54C A64U],0.11
13,UAACAGGGGGCCACAGCAGAGGCGUACACGUCGCAGCCCCUGUCAGAUUCAGGUGAAUCUGCGAAUUCUGCUGUAUAUCUC [A21G U26A U51A],0.41
14,UAACAGGGGGCCACAGCAGAGGCGUACACGUCGCAGCCCCUGUCAGAUUCUGGCGAAUCUGCGAAUUCUGCUGUACAUCUC [A21G U26A U54C U76C],0.63
15,UAACAGGGGGCCACAGCAGAGGCGUACACGUCGCAGCCCCUGUCAGAUUCUGGUGAACCUGCGAAUUCUGCUGCAUACCUC [A21G U26A U58C U74C U78C],0.17
16,UAACAGGGGGCCACAGCAGAGGCGUACACGUCGCAGCCCCUGUCAGAUUCUGGUGAAUCUGCGAAUACUGCUGUAUAUCUC [A21G U26A U67A],0.25
17,UAACAGGGGGCCACAGCAGAGGCGUACACGUCGCAGCCCCUGUCAGAUUCUGGUGAAUCUGCGAAUACUGCCGUAUAUCUC [A21G U26A U67A U72C],0.23
